Measured values: paper PMC6919601, “Identification of Plasmodium dipeptidyl aminopeptidase allosteric inhibitors by high throughput screening” (PLoS ONE, 2019)
The whole screen tested about 110,000 compounds, of which about 230 (0.21%) showed an effect of 50% or more. The list shows a part of the results.

The compounds below were run against DPAP1 (Plasmodium falciparum, UniProt Q8IIJ9) (assay: primary screen, percent inhibition; read by cleavage of a fluorogenic dipeptide substrate; higher = more effect of the substance).
Parameters: species or system P. falciparum D10 trophozoite lysates; single well
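Note: 30 min substrate incubation versus DMSO and 10 µM JCP410 controls.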

DPAP1, sequence (Q8IIJ9 whole entry, looked up): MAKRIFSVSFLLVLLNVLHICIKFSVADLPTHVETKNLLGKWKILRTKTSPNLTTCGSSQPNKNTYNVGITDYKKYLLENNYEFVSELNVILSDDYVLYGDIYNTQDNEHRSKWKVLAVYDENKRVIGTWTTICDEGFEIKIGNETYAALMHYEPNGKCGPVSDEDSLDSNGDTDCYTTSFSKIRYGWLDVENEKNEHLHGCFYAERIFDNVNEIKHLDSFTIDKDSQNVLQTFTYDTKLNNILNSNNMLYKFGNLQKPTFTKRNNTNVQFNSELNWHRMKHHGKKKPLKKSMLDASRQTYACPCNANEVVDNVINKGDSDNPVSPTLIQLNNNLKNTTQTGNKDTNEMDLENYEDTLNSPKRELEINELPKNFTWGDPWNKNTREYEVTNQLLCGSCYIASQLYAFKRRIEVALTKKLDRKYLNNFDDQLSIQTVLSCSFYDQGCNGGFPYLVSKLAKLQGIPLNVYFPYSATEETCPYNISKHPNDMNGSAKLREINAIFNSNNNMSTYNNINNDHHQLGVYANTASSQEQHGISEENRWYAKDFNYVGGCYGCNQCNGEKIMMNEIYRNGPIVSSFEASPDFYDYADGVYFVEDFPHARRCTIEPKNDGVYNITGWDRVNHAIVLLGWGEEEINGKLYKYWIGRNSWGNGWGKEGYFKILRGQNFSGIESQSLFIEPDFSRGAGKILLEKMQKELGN

Compared with `Cc1nc2ccc(S(=O)(=O)N(C)CC(=O)NC3CCN(Cc4ccccc4)CC3)cc2s1`, `Cc1nccc2nc(O)c(C(=O)NC3CCN(Cc4ccccc4)CC3)cc12` is lower in “% Inhibition @ 10 uM” value: 4.33% for the first, 3.93% for the second.

Going from `Clc1cccc(-c2nnc(CN3CCC(Cc4ccccc4)CC3)o2)c1` to `Cc1ccc2onc(CNC(=O)NC3CCN(Cc4ccccc4)CC3)c2c1`, the “% Inhibition @ 10 uM” value rises from -2.23% to -0.544%.

Going from `COc1cc(C)c2c(=O)c(-c3nc(C)cs3)coc2c1` to `COCc1cc(C)nc2sc3c(c12)NC(C)N(Cc1ccco1)C3=O` (stereo not drawn), the “% Inhibition @ 10 uM” value rises from -3.45% to 7.17%.

Compared with `COc1ccc(-c2[nH]nc3c2C(c2cc(OC)c(OC)c(OC)c2)CC(=O)O3)cc1` (stereo not drawn), `COc1ccc(-c2[nH]nc3c2C(c2cccc(F)c2F)C(C#N)=C(N)O3)cc1OC` (stereo not drawn) is lower in “% Inhibition @ 10 uM” value: 9.03% for the first, 5.18% for the second.

Compared with `CC(Nc1cc(=O)n(C)c(=O)[nH]1)c1ccccc1` (stereo not drawn), `NC(=O)NC(c1ccccc1)c1cccc2ccccc12` (stereo not drawn) is lower in “% Inhibition @ 10 uM” value: -0.267% for the first, -5.2% for the second.

Going from `CCOc1ccc2c(c1)nc(SCc1ccccc1)n2C` to `Cc1ccc(OCCn2cc(C(=O)O)c3ccccc32)cc1C`, the “% Inhibition @ 10 uM” value rises from -3.14% to -1.33%.

Compared with `COc1ccc(OCC(=O)N2CCN(C3CCN(Cc4ccccc4)CC3)CC2)cc1`, `O=C(O)c1[nH]c2ccccc2c1CC(=O)N1CCN(Cc2ccc3c(c2)OCO3)CC1` is higher in “% Inhibition @ 10 uM” value: -1.6% for the first, 4.14% for the second.

First: CN1CCCCc2c([nH]c3ccccc23)C1=O
Second: CN1CCCc2c1n(Cc1ccccc1)c1ccccc1c2=O
The “% Inhibition @ 10 uM” value of the first is lower: -2.77% for the first, -0.591% for the second.

Compared with `Nc1nonc1NC(=O)CSc1nnc2c(n1)[nH]c1ccccc12`, `Nc1nnc(SCC(=O)Nc2nc(-c3ccccc3)cs2)s1` is higher in “% Inhibition @ 10 uM” value: -1.24% for the first, 2.03% for the second.

Going from `COc1cc(C(=O)N(Cc2nc(-c3ccccc3)no2)C(C)C)cc(OC)c1OC` to `CC(C)N(Cc1c(O)ccc2c(=O)c(-c3ccccc3)coc12)C(C)C`, the “% Inhibition @ 10 uM” value rises from 0.521% to 17.4%.

Going from `Cc1ccccc1OCC(=O)Nc1ccc(Oc2ccc3c(c2)C(=O)NC3=O)cc1` to `CN(Cc1ccccc1)S(=O)(=O)c1nnc(NC(=O)COc2ccccc2F)s1`, the “% Inhibition @ 10 uM” value falls from 2.22% to -7.32%.

First: Cc1cc(C(=O)NCCc2ccc(S(N)(=O)=O)cc2)no1
Second: O=S(=O)(NCCCc1ccccc1)c1ccc2nc(O)ccc2c1
The “% Inhibition @ 10 uM” value of the first is lower: -2.65% for the first, 1.92% for the second.

Compared with `CCOC(=O)c1c(NC(=O)C(F)(OC)C(F)(F)F)sc(C(=O)N2CCCCC2)c1C` (stereo not drawn), `COc1cc(C(=O)Nc2sc3c(c2C(N)=O)CCCC3)cc(OC)c1OC` is higher in “% Inhibition @ 10 uM” value: 2.18% for the first, 5.54% for the second.

Going from `COc1ccc(S(=O)(=O)N[C@@H](CC(C)C)C(=O)NCC#N)cc1OC` to `Cc1ccc(Cl)cc1N(CC(=O)NC(C)C)S(C)(=O)=O`, the “% Inhibition @ 10 uM” value falls from -1.41% to -3.78%.

Compared with `CCOC(=O)c1ccc(NC(=O)c2cccs2)cc1`, `O=C(Nc1ccc(-c2nc3cc(NC(=O)c4cccs4)ccc3o2)cc1)c1cccs1` is higher in “% Inhibition @ 10 uM” value: -3.72% for the first, 4.04% for the second.

Compared with `CCN(C(=O)/C=C/c1ccc(C(C)C)cc1)c1ccccc1`, `N#Cc1ccc(NC(=O)CCc2ccccc2)cc1` is higher in “% Inhibition @ 10 uM” value: 1.63% for the first, 3.29% for the second.

Going from `CCOC(=O)N1CCN(CC(O)COc2ccc(OC)cc2C(C)(C)C)CC1` (stereo not drawn) to `CCN1CCN(C(=O)CN2N=C(c3ccccc3)CCC2=O)CC1`, the “% Inhibition @ 10 uM” value rises from 0.146% to 0.514%.

Compared with `O=C1C(c2ccc(F)cc2)N(CC2COc3ccccc3O2)C(=O)CN1C1CCCCC1` (stereo not drawn), `CC1CCN(C(=O)c2cccc3c2-c2ccccc2C3=O)CC1` is lower in “% Inhibition @ 10 uM” value: 4.47% for the first, -10.6% for the second.

Going from `O=C(CCCn1sc2ccccc2c1=O)NCCc1ccc(Cl)cc1` to `Cc1oc(-c2ccc(Cl)cc2)nc1CSCC(=O)NCc1ccc(Cl)cc1`, the “% Inhibition @ 10 uM” value falls from -2.84% to -4.71%.

Going from `COc1ccc2oc(C)c(C(=O)c3ccc(C)cc3)c2c1` to `CN1C(=O)C(O)=C(C(=O)c2ccc(Cl)cc2)C1c1ccc(Cl)cc1` (stereo not drawn), the “% Inhibition @ 10 uM” value falls from -3.03% to -3.09%.

Compared with `CCOc1cc(-c2noc(N)c2C#N)cc(OCC)c1OCC`, `CCOc1ccc(-c2[nH]nc3c2C(c2ccco2)C(C#N)=C(N)O3)c(OCC)c1` (stereo not drawn) is lower in “% Inhibition @ 10 uM” value: 3.96% for the first, -2.56% for the second.

First: CCOC(=O)c1c(-c2ccc(Cl)cc2)csc1/N=C/C1C(=O)CC(C)(C)CC1=O
Second: COc1cc(Cl)ccc1N1C(=O)c2ccccc2C1=O
The “% Inhibition @ 10 uM” value of the first is lower: -7.2% for the first, -5.98% for the second.

Compared with `COc1cc2ncc(S(=O)(=O)c3ccc(C)cc3)c(N3CCCC3)c2cc1OC`, `Cc1ccc(S(=O)(=O)Nc2cncc(C(=O)NC3CCCCC3C)c2)cc1` (stereo not drawn) is lower in “% Inhibition @ 10 uM” value: -3.86% for the first, -5.75% for the second.

Going from `O=C(NC1=NCCS1)c1cc(-c2ccc3c(c2)OCO3)nc2ccccc12` to `Cc1c(CC(=O)NCc2ccc3c(c2)OCO3)c(=O)oc2cc(O)ccc12`, the “% Inhibition @ 10 uM” value rises from -1.42% to 2.54%.

Going from `Cn1c(=O)[nH]c2nnc(-c3cc(Br)cs3)nc2c1=O` to `CCn1c(=O)[nH]c2cc(C(=O)Nc3ccc(Cl)c(Cl)c3)ccc2c1=O`, the “% Inhibition @ 10 uM” value falls from -2.85% to -5.35%.

Compared with `CCOC(=O)c1nnn(-c2nonc2-n2cccc2)c1CN1CCOCC1`, `CCN(C(=O)CN1CCOCC1)C1(C)C(=O)c2ccccc2C1=O` is higher in “% Inhibition @ 10 uM” value: -0.834% for the first, 4.64% for the second.

Going from `COc1ccccc1N1C(=O)CC(=O)NC1=S` to `COc1ccccc1/C=C1\SC(c2ccccc2)=NC1=O`, the “% Inhibition @ 10 uM” value rises from -4.01% to 15.7%.

Compared with `CCCN1CCCn2c1nc1c2c(=O)n(C)c(=O)n1C`, `CCc1nn2c(=O)cc(CSc3nnc(N)s3)nc2s1` is lower in “% Inhibition @ 10 uM” value: 1.35% for the first, 1.15% for the second.

First: O=CN1CCN(C/C(Cl)=C/c2ccccc2)CC1
Second: Cc1cccc(CN2CCN(Cc3ccccc3F)CC2)c1
The “% Inhibition @ 10 uM” value of the first is lower: -2.95% for the first, -2.87% for the second.

First: CC(C#N)(Nc1ccc(Cl)cc1)c1cccnc1 (stereo not drawn)
Second: COc1ccc2c(CNCc3cccnc3)c(C(=O)O)n(Cc3ccc(F)cc3Cl)c2c1
The “% Inhibition @ 10 uM” value of the first is lower: 6.98% for the first, 9.37% for the second.

First: CCC12CC3CC(C1)CC(NC(=O)SC)(C3)C2
Second: Cc1nc2c(-c3ccccc3)c(C)nn2c(C)c1CC(=O)NC(C)C12CC3CC(CC(C3)C1)C2 (stereo not drawn)
The “% Inhibition @ 10 uM” value of the first is higher: 3.48% for the first, -2.25% for the second.

Going from `CC(=O)NC1(C(F)(F)F)C(=O)N(Cc2ccccc2)C(C)=C1C(=O)c1ccccc1` (stereo not drawn) to `Cc1c(CCN)c2ccccc2n1Cc1ccccc1`, the “% Inhibition @ 10 uM” value rises from -5.2% to -0.0372%.

Compared with `CCN1CCC(N2CCN(C=O)CC2)CC1`, `CC(=O)N1CN(C2CCCCC2)Cc2c1sc1c2CCCC1` is lower in “% Inhibition @ 10 uM” value: 1.43% for the first, -0.123% for the second.

Going from `COC(=O)c1sccc1NC(=O)c1ccoc1C` to `COc1cccc(S(=O)(=O)NCC(=O)Nc2ccc3sc(C)nc3c2)c1`, the “% Inhibition @ 10 uM” value falls from 2.92% to -5.14%.

Going from `COc1cc(OC)c(OC)cc1C=C1C(=O)OC2(CCCCC2)OC1=O` to `COc1cc2c(cc1OC)C(C(=O)NCCC1=CCCCC1)C(c1cccnc1)N(C)C2=O` (stereo not drawn), the “% Inhibition @ 10 uM” value rises from -6.44% to -1.41%.

First: O=C1c2ccccc2C(=O)C1(Nc1cccc(F)c1)c1ccccc1
Second: c1ccc(Cn2c(NCc3ccccn3)nc3ccccc32)cc1
The “% Inhibition @ 10 uM” value of the first is higher: -3.93% for the first, -7.35% for the second.

Compared with `O=C(Cn1ncc2c3ccccc3nc-2c1O)Nc1ccccn1`, `OCC(O)Cn1c2ccccc2c2ccccc21` (stereo not drawn) is higher in “% Inhibition @ 10 uM” value: -0.723% for the first, 1.44% for the second.

Compared with `CCOc1ccc(/C(O)=C/C2=NCCNC2=O)cc1`, `CCOc1ccc(NC(=O)c2cc(OC)cc(OC)c2)cc1` is higher in “% Inhibition @ 10 uM” value: 1.97% for the first, 2.82% for the second.

First: CCN(CC)CCCOc1ccc(C(C)(C)C)cc1
Second: CCNCCOC(c1ccccc1)c1ccccc1
The “% Inhibition @ 10 uM” value of the first is higher: 3% for the first, -8.9% for the second.

Compared with `Cc1[nH]nc2c1C(c1cccnc1)N(C)C2=O` (stereo not drawn), `Cc1ccccc1NCc1[nH]cnc1C` is lower in “% Inhibition @ 10 uM” value: 0.635% for the first, -2.02% for the second.

First: Cc1ccc(-c2cc(-c3ccccc3)nc(SCC(N)=O)c2C#N)cc1
Second: Cc1ccc(S(=O)(=O)c2cc3c(=O)n4cccc(C)c4nc3n(Cc3ccccc3)c2=N)cc1
The “% Inhibition @ 10 uM” value of the first is higher: 7.1% for the first, -1.52% for the second.

First: O=C(CSc1nnc(-c2ccco2)o1)c1ccc2c(c1)OCCO2
Second: CC1CCC(NC(=O)c2cc3oc4ccccc4c3n2C)CC1 (stereo not drawn)
The “% Inhibition @ 10 uM” value of the first is lower: -6.42% for the first, 3% for the second.

Going from `CC1=CN2C(=N)/C(=C/c3cc(C)n(Cc4ccccc4)c3C)C(=O)N=C2S1` to `CCCOc1ccc(C2C3=C(O)CC(C)(C)CC3=Nc3ccccc3N2C(C)=O)cc1OC` (stereo not drawn), the “% Inhibition @ 10 uM” value falls from -2.98% to -6.62%.

Going from `COC(=O)c1nnn(-c2nonc2N)c1C(C)C` to `CC(C)CC(C(=O)O)N1C(=O)c2c(Cl)c(Cl)c(Cl)c(Cl)c2C1=O` (stereo not drawn), the “% Inhibition @ 10 uM” value falls from 1.62% to -3.63%.

Compared with `O=S1(=O)c2ccccc2C2C1C1c3ccccc3S(=O)(=O)C21` (stereo not drawn), `S=c1cc(Sc2cc(=S)oc3ccccc23)c2ccccc2o1` is higher in “% Inhibition @ 10 uM” value: -4.56% for the first, 8.23% for the second.

Compared with `Cc1cc(N2CCN(c3ccccc3)CC2)nc(N)n1`, `COc1ccccc1C(=O)N1CCN(C(c2ccccc2)c2ccccc2)CC1` is higher in “% Inhibition @ 10 uM” value: -3.04% for the first, -0.512% for the second.

First: CN1CCC(N(C)Cc2ccco2)CC1
Second: OCC1CCCCN1Cc1ccccc1F (stereo not drawn)
The “% Inhibition @ 10 uM” value of the first is lower: -0.969% for the first, 1.9% for the second.

Compared with `CC(C)OCCCNC(=O)C1CCCN(C(=O)c2cnn(-c3ccc(F)cc3)c2-n2cccc2)C1` (stereo not drawn), `NC(=O)C1CCN(C(=O)/C(=C/c2ccccc2)NC(=O)c2ccccc2)CC1` is higher in “% Inhibition @ 10 uM” value: -3.01% for the first, 2.46% for the second.

Compared with `COc1ccc(Br)cc1CN1CC2(C)CC1CC(C)(C)C2` (stereo not drawn), `CCOC(=O)/C(C#N)=C/c1ccc(N(C)C)c(Br)c1` is higher in “% Inhibition @ 10 uM” value: -1.5% for the first, 2.76% for the second.

First: COCCCNC(=O)CCN1C(=O)c2ccccc2C1=O
Second: CCOc1cc(C=C2C(=O)N(C)C(=O)N(C)C2=O)ccc1OCCSc1cccc2ccccc12
The “% Inhibition @ 10 uM” value of the first is lower: -7.36% for the first, 2.94% for the second.

Going from `O=C(NCCN1CCCC1)c1ccc(Cl)cc1Cl` to `Cc1ccc(OCC(=O)NC2C3CC4CC(C3)CC2C4)c(-n2nc3ccccc3n2)c1` (stereo not drawn), the “% Inhibition @ 10 uM” value falls from -0.992% to -2.28%.
